# The supplement of paper PMC4466236
# Whole data set: some 33,000 sequences, median “E-score (dimensionless, -0.5 to 0.5)” near -0.058, cut for the highest 2% near 0.35. This is one part of the list.
# System: MvaT
# Test: PBM 8-mer E-score (mean of HK and ME arrays) (E-score (dimensionless, -0.5 to 0.5)); higher = stronger relative binding preference; most listed sequences are background and not binding sites
# Summary of the method: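 Full-length P. aeruginosa MvaT carrying an N-terminal glutathione S-transferase tag was tested by protein binding microarray following a previously described protocol. Two universal double-stranded 60-mer arrays, ME and HK, were used, each with a constant 25-mer primer region and a variable 35-mer region covering all 8-mers. The rank-based E-score is the mean of the two arrays, parsed with a custom script. Its range runs from -0.5 to 0.5 for each 8-mer.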
row,Sequence,PBM 8-mer E-score
1,AAACGCCC,-0.174
2,CACAACTC,0.122
3,ATACAAGG,0.0425
4,AGCCAGCG,-0.207
5,CGGAGTGA,-0.236
6,ACTCTCCT,-0.122
7,CCTAGGCC,-0.164
8,CAAAGGGG,-0.115
9,AGATTCAG,0.027
10,GCCGACGC,-0.271
11,AATGTCAG,-0.0492
12,CAAAGATC,-0.0152
13,ACTCTCTA,0.0484
14,GACGACAC,-0.134
15,CAGATGAA,-0.0605
16,AACAGCCG,-0.149
17,ACCGGCAA,-0.0705
18,AGTTTACC,0.154
19,ACAGCATA,0.147
20,ATGTTTTC,0.29
21,ATCAAATA,0.341
22,GATGTGCA,-0.168
23,ATGGTTGC,-0.0762
24,ATGACGTA,-0.0574
25,CAAGAACG,-0.172

row,Sequence,PBM 8-mer E-score
1,CCTTGTTC,-0.189
2,CACCCAGA,-0.158
3,CATTGGCG,-0.278
4,ATAGTGAC,-0.00907
5,ATCCTAAT,0.0737
6,ACCCAGCA,-0.147
7,ATCATCTA,0.0265
8,ATTCTAGG,0.127
9,AGGAACAG,-0.0974
10,CTACAGAC,-0.11
11,GCAGCGAA,-0.0745
12,AGGGACGG,-0.283
13,GGAGACAC,-0.0363
14,CACTATAC,0.17
15,AATGTGTA,0.313
16,TATCGCAA,0.0456
17,CAGAAGCC,-0.184
18,GAGTGAAC,-0.102
19,CGCCGCGC,-0.0801
20,CGCTACAC,-0.201
21,ACTTAACA,0.227
22,AGCTCACG,-0.226
23,ACAAAGCA,0.0758
24,ATCGTAAT,0.231
25,CCATTCAA,-0.00735

row,Sequence,PBM 8-mer E-score
1,AGCTAATG,-0.0227
2,CGAGACAA,-0.0174
3,ATACCTGC,0.0241
4,ACGTTATG,0.0994
5,CATGGCTA,-0.152
6,GCTTATTA,0.254
7,TCGCCTAA,0.00604
8,CCTAACAG,-0.0905
9,CGCAGTAC,-0.208
10,GACGGGCA,-0.125
11,AACTCGAA,0.0759
12,AGCTCATC,-0.199
13,GATGCAAC,0.0428
14,CGTTCAAC,-0.0408
15,CTTGCTGC,-0.206
16,ACACGAAG,-0.146
17,AGGAAAGG,-0.157
18,ACCGTGAG,-0.21
19,CTAGATCA,-0.0517
20,TTAAGGAA,0.158
21,CAGACTCA,-0.147
22,GTACACCA,0.119
23,ACTCGCCG,-0.141
24,CATCCCGC,-0.145
25,GGACGATA,0.0116

row,Sequence,PBM 8-mer E-score
1,CGTCGCGC,-0.104
2,ATACGAGG,-0.0558
3,AGCCGCGA,-0.146
4,ATGAGCGC,-0.128
5,AAAGATTA,0.25
6,CGCTCTTC,-0.0701
7,GATTCCGA,-0.155
8,AAACTAGT,0.271
9,GGACAGAA,-0.222
10,CTACATAG,0.0412
11,CTGATCCC,-0.264
12,ACCACGAC,-0.0669
13,GCTTGCGA,-0.137
14,ATTCATTG,0.041
15,AAGCTCAC,-0.0796
16,AGATGGCT,-0.175
17,CCCCTCGG,-0.309
18,ATCACATG,0.00336
19,ACAACGGA,0.0386
20,ATAAGTGA,0.131
21,AGCTGCCC,-0.276
22,AGCGTAGA,0.089
23,AATCAGGA,0.0421
24,GCCAATAC,0.0871
25,GACCCGCC,-0.0677

row,Sequence,PBM 8-mer E-score
1,CTTTGAGA,0.104
2,ATTCCGCA,0.02
3,AACCCATG,-0.0156
4,AAATGTTC,0.268
5,CTAAAAGC,0.0279
6,CCCCCTTC,-0.313
7,CAACATTC,0.0806
8,TGCCACAA,-0.0593
9,CGTTACGC,-0.179
10,TAACGGAA,0.127
11,CACTTGGG,-0.254
12,ACCCGGGT,-0.308
13,AGCGCTTC,-0.154
14,CCCGAACG,-0.147
15,CAAAATGG,-0.00562
16,ATGGCAAG,-0.0973
17,AGTATCAG,0.0345
18,AAGAGCAT,0.0169
19,ACATGGTG,-0.175
20,ACGGGACC,-0.144
21,CTCGAGGA,-0.0766
22,CCGGCAAA,-0.0766
23,AGCACAAT,0.085
24,ACACCATC,0.0357
25,GTAATAAA,0.333

row,Sequence,PBM 8-mer E-score
1,GTCAGTTA,0.143
2,CATGTGGG,-0.189
3,AACGGTTC,0.0992
4,CACAGTGA,-0.0186
5,ACCTGTTC,-0.177
6,AAAGACAA,0.166
7,ACCGACGT,-0.223
8,ATCTACTG,0.0718
9,GCACGTTA,0.0767
10,ACCATAAT,0.243
11,CCCAGGCG,-0.27
12,CTCTTCTC,-0.255
13,CATTCACA,0.114
14,ACTTGCTC,0.0161
15,CATGTTTA,0.301
16,TCTTGCCA,-0.124
17,TCAGGGAA,-0.121
18,GCGCCATA,-0.148
19,AGTTTGCA,0.21
20,AAATGCAG,0.0248
21,CCGATCCC,-0.25
22,CGTCGTAA,0.0228
23,CACAGATC,-0.0583
24,AATGGGTC,-0.0317
25,AAATTCTG,0.0652

row,Sequence,PBM 8-mer E-score
1,AAGATTGG,0.154
2,GGCACGAC,-0.198
3,AGAGACTA,0.0381
4,CACAGCTC,-0.105
5,CAACTTCC,0.0684
6,ACCTAGTG,-0.0746
7,GAAATGAC,-0.0603
8,AATTTTGC,0.288
9,AAGCCCTG,-0.301
10,AATATGCG,0.209
11,CCACTATA,0.172
12,GTTTCCGA,0.0421
13,CCCATTCG,-0.0815
14,GCCGGAGC,-0.245
15,GCAGGACC,-0.179
16,CCATATGC,0.0291
17,CAGCATCG,-0.0938
18,AGGGATTC,-0.0322
19,CGCTGGCA,-0.0979
20,CCTATTAG,0.0715
21,CCCCATAA,-0.152
22,ACGGCCGA,-0.134
